# Test results from US9617210B2, “Pyrrole derivatives as alpha 7 NACHR modulators” (Lupin Limited, priority 2013, dated 2017).
# Some of these results come from one statement about several compounds together.
# Target: T1, α7 nAChR (Homo sapiens, UniProt P36544)
# T1 construct: human IMR-32 cells with native expression of α7 nAChR; endogenous in cells; host or cells: IMR-32 (human neuroblastoma)
# Test: Cell-based real-time kinetic FLIPR Ca2+ assay in IMR-32 cells: potentiation of agonist response (fold PAM activity)
# Conditions: 1 μM test compound; agonist PNU-282987, 10 μM; human IMR-32 cells with native expression of α7 nAChR; fold increase over agonist-alone effect
# T1 sequence (P36544 23-502): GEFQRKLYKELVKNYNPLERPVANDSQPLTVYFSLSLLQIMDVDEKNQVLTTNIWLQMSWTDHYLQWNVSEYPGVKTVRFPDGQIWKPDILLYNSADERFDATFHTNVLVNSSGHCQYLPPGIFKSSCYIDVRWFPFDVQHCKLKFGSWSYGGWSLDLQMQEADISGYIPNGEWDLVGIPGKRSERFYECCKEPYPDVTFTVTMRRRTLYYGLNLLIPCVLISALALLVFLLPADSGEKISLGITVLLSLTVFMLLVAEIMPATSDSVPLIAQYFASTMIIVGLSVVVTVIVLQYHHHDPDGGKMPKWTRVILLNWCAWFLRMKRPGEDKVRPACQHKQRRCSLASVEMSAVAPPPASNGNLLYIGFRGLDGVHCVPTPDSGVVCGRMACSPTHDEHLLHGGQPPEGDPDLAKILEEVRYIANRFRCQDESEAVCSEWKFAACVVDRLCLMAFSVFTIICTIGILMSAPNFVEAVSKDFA
row,SMILES,Fold activation at 1 μM conc. (Group)
1,"Cc1c(C(=O)CC2CC2)c(-c2ccc(S(N)(=O)=O)cc2)c(C)n1C1CCCCC1 [Compound 16, 4-(1-cyclohexyl-4-(2-cyclopropylacetyl)-2,5-dimethyl-1H-pyrrol-3-yl)benzenesulfonamide]",A (the compounds with activity between 1 to 5 folds are grouped as A)
2,"Cc1c(C(=O)CC2CC2)c(-c2ccc(S(N)(=O)=O)cc2)c(C)n1C1CCN(C)CC1 [Compound 18, 4-(4-(2-cyclopropylacetyl)-2,5-dimethyl-1-(1-methylpiperidin-4-yl)-1H-pyrrol-3-yl)benzenesulfonamide]",A (the compounds with activity between 1 to 5 folds are grouped as A)
3,"Cc1cc(-n2c(C)c(C(=O)CC3CC3)c(-c3ccc(S(N)(=O)=O)c(F)c3)c2C)ccc1Cl [Compound 11, 4-(1-(4-chloro-3-methylphenyl)-4-(2-cyclopropylacetyl)-2,5-dimethyl-1H-pyrrol-3-yl)-2-fluorobenzenesulfonamide]",A (the compounds with activity between 1 to 5 folds are grouped as A)
4,"Cc1c(C(=O)CC2CCC2)c(-c2ccc(S(N)(=O)=O)cc2)c(C)n1-c1ccc(Cl)cc1 [Compound 9, 4-(1-(4-chlorophenyl)-4-(2-cyclobutylacetyl)-2,5-dimethyl-1H-pyrrol-3-yl)benzenesulfonamide]",C (the compounds with activity above 15 folds are grouped as C)
5,"Cc1c(C(=O)CC2CCC2)c(-c2ccc(S(N)(=O)=O)c(F)c2)c(C)n1-c1ccc(Cl)cc1 [Compound 6, 4-(1-(4-chlorophenyl)-4-(2-cyclobutylacetyl)-2,5-dimethyl-1H-pyrrol-3-yl)-2-fluorobenzenesulfonamide]",B (the compounds with activity between 5.1 folds and 15 folds are grouped as B)
6,"Cc1c(C(=O)CC2CC2)c(-c2ccc(S(N)(=O)=O)cc2)c(C)n1-c1cccnc1 [Compound 17, 4-(4-(2-cyclopropylacetyl)-2,5-dimethyl-1-(pyridin-3-yl)-1H-pyrrol-3-yl)benzenesulfonamide]",A (the compounds with activity between 1 to 5 folds are grouped as A)
7,"Cc1c(C(=O)CC2CC2)c(-c2ccc(S(N)(=O)=O)cc2)c(C2CC2)n1-c1ccc(Cl)cc1 [Compound 10, 4-(1-(4-chlorophenyl)-2-cyclopropyl-4-(2-cyclopropylacetyl)-5-methyl-1H-pyrrol-3-yl)benzenesulfonamide]",A (the compounds with activity between 1 to 5 folds are grouped as A)
8,"Cc1c(C(=O)CC2CCCC2)c(-c2ccc(S(N)(=O)=O)c(F)c2)c(C)n1-c1ccc(Cl)cc1 [Compound 13, 4-(1-(4-chlorophenyl)-4-(2-cyclopentylacetyl)-2,5-dimethyl-1H-pyrrol-3-yl)-2-fluorobenzenesulfonamide]",B (the compounds with activity between 5.1 folds and 15 folds are grouped as B)
9,"Cc1c(C(=O)CC2CC2)c(-c2ccc(S(N)(=O)=O)cc2)c(C)n1-c1ccc(N(C)C)cc1 [Compound 4, 4-(4-(2-cyclopropylacetyl)-1-(4-(dimethylamino)phenyl)-2,5-dimethyl-1H-pyrrol-3-yl)benzenesulfonamide]",B (the compounds with activity between 5.1 folds and 15 folds are grouped as B)
10,"Cc1c(C(=O)CC2CC2)c(-c2ccc(S(N)(=O)=O)cc2)c(C)n1-c1ccc(Cl)cc1 [Compound 1, 4-(1-(4-chlorophenyl)-4-(2-cyclopropylacetyl)-2,5-dimethyl-1H-pyrrol-3-yl)benzenesulfonamide]",C (the compounds with activity above 15 folds are grouped as C)
11,"Cc1c(C(=O)CC2CCCC2)c(-c2ccc(S(N)(=O)=O)cc2)c(C)n1-c1ccc(Cl)cc1 [Compound 12, 4-(1-(4-chlorophenyl)-4-(2-cyclopentylacetyl)-2,5-dimethyl-1H-pyrrol-3-yl)benzenesulfonamide]",B (the compounds with activity between 5.1 folds and 15 folds are grouped as B)
12,"Cc1cc(-n2c(C)c(C(=O)CC3CC3)c(-c3ccc(S(N)(=O)=O)cc3)c2C)ccc1Cl [Compound 7, 4-(1-(4-chloro-3-methylphenyl)-4-(2-cyclopropylacetyl)-2,5-dimethyl-1H-pyrrol-3-yl)benzenesulfonamide]",A (the compounds with activity between 1 to 5 folds are grouped as A)
13,"Cc1c(C(=O)CN2CCCC2)c(-c2ccc(S(N)(=O)=O)cc2)c(C)n1-c1ccc(Cl)cc1 [Compound 3, 4-(1-(4-chlorophenyl)-2,5-dimethyl-4-(2-(pyrrolidin-1-yl)acetyl)-1H-pyrrol-3-yl)benzenesulfonamide]",A (the compounds with activity between 1 to 5 folds are grouped as A)
14,"CCc1c(C(=O)CC2CC2)c(-c2ccc(S(N)(=O)=O)cc2)c(C)n1-c1ccc(Cl)cc1 [Compound 14, 4-(1-(4-chlorophenyl)-4-(2-cyclopropylacetyl)-5-ethyl-2-methyl-1H-pyrrol-3-yl)benzenesulfonamide]",A (the compounds with activity between 1 to 5 folds are grouped as A)
15,"Cc1c(C(=O)CC2CC2)c(-c2ccc(S(N)(=O)=O)cc2)c(C)n1-c1ccc(F)cc1 [Compound 5, 4-(4-(2-cyclopropylacetyl)-1-(4-fluorophenyl)-2,5-dimethyl-1H-pyrrol-3-yl)benzenesulfonamide]",A (the compounds with activity between 1 to 5 folds are grouped as A)
16,"Cc1c(C(=O)CC2CC2)c(-c2ccc(S(N)(=O)=O)cc2)c(C(F)(F)F)n1-c1ccc(Cl)cc1 [Compound 15, 4-(1-(4-chlorophenyl)-4-(2-cyclopropylacetyl)-5-methyl-2-(trifluoromethyl)-1H-pyrrol-3-yl)benzenesulfonamide]",A (the compounds with activity between 1 to 5 folds are grouped as A)
17,"Cc1c(C(=O)CN2CCCC2=O)c(-c2ccc(S(N)(=O)=O)cc2)c(C)n1-c1ccc(Cl)cc1 [Compound 2, 4-(1-(4-chlorophenyl)-2,5-dimethyl-4-(2-(2-oxopyrrolidin-1-yl)acetyl)-1H-pyrrol-3-yl)benzenesulfonamide]",A (the compounds with activity between 1 to 5 folds are grouped as A)
18,"Cc1c(C(=O)CC2CC2)c(-c2ccc(S(N)(=O)=O)c(F)c2)c(C)n1-c1ccc(Cl)cc1 [Compound 8, 4-(1-(4-chlorophenyl)-4-(2-cyclopropylacetyl)-2,5-dimethyl-1H-pyrrol-3-yl)-2-fluorobenzenesulfonamide]",C (the compounds with activity above 15 folds are grouped as C)
